Measurements from PubChem BioAssay (NCI).
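Five compound concentrations were applied to cells in 96-well plates for 48 hours; endpoints were derived by simple linear interpolation of the resulting dose-response curve. At the GI50, growth is halved. Definition used: TGI = concentration required for complete inhibition of growth.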

System: NCI-H322M lung
Test: inhibition of tumour cell growth, NCI panel, 48 h

`CCC(=C(c1ccc(OCCN2CCCCCC2)cc1)c1ccc(OCCN2CCCCCC2)cc1)c1ccc(Cl)cc1` showed a GI50 of 4.32 µM and a TGI of 8.81 µM.
